Laboratory results taken from the RNAGym collection of RNA variant scans (doi:10.7554/elife.90254).
Read counts are not given, so values of variants with three or more changes are uncertain.

B1: LINE1-full (parent)
chain: UACGUAGGUGGUUUUCCCCUGAUAGUGCUAAGGGGGCCUGGAAGUUUGGACUGGGCAGAGCUCAACACAGCGUGGCAAAGUGGCUGUGGCUAGACUGCCUCUCUGGAUUCCUCGUCACUCAGCAGGGCAUCUCUGAGAGAAAUGCC

Variants of: B1
Test: self-cleavage, relative activity (ratio to wild type); higher = more cleavage; in vitro, sequencing; the parent is a self-cleaving ribozyme
For A6U U39C U102C, the self-cleavage was 1.08. U45C A67G A124U A142G gave a self-cleavage of 0. Work on U13C A117C A136G yielded a self-cleavage of 1.47. In the case of C3U U5C U15C U47A G82A U115A A129G, the self-cleavage is reported as 1.34. A57U U132C A138G gave a self-cleavage of 0.09. Variant A22G U109C U119G A138U has a self-cleavage of 1.15. U13C A67G G105A showed a self-cleavage of 0.47. Work on C90A U91C U112C yielded a self-cleavage of 0.1. In the case of A30U U104C U108C, the self-cleavage is reported as 0.98. For A69G A107U C120U C146A, the self-cleavage was 0.45. With A65G C113U U119C A136U the self-cleavage was 0. Work on A64U A94G A136G yielded a self-cleavage of 0.09. Variant A6G U73G A124U has a self-cleavage of 0.84. With A22G A77U A136G G144A the self-cleavage was 1.45. With U1C G35A C71U A136G the self-cleavage was 0.75. With A22U U45A A121G U132G the self-cleavage was 0.97. For U45C A129G A138G, the self-cleavage was 1.97. For U14C U47C A121G, the self-cleavage was 0.54. With A22G U23G A24U G40A A67U the self-cleavage was 0. For U47G U62A U87C C99A, the self-cleavage was 0.2. Variant U5A U47C U130C A140G C145U has a self-cleavage of 0.75. G27A U39C A77G U87A showed a self-cleavage of 0.03. Variant C18U U62C G88A G105A has a self-cleavage of 0.03. With U14C A50C U81A the self-cleavage was 1.99. Work on U5A G34U G36C U47C yielded a self-cleavage of 0.81. U62C C95U U108C U115C A142G showed a self-cleavage of 0.32. With U45A A69U G126U U130C the self-cleavage was 0.04. Work on U14C U20A A43G yielded a self-cleavage of 1. Work on U9A U47C U85A U108C yielded a self-cleavage of 0.51. Variant U15C A78G U143C has a self-cleavage of 1.15. Work on U26A A77G A141G yielded a self-cleavage of 1.84. With A22G U52C U104C the self-cleavage was 0. In the case of A59U U108C A141G, the self-cleavage is reported as 1.39. For U39A U62C A67U G72A U104C U108C C128U, the self-cleavage was 0.01. Variant U100C A117U U130C has a self-cleavage of 2.43. Work on U96A A107G A141G yielded a self-cleavage of 0.17. Work on U15C U20C G40A A42G U46C A50G U73A yielded a self-cleavage of 1.53. For A6U U52C C116U, the self-cleavage was 1.26. With U39C U62C A138U the self-cleavage was 0.06. Work on U20C A65G U91C C98A yielded a self-cleavage of 0.12. Variant G36A U62C C113U has a self-cleavage of 0.02. With U23C G27A U39G the self-cleavage was 1.5. In the case of U15C A30G U134C, the self-cleavage is reported as 0.93. With U9C U14A A124G the self-cleavage was 0.56. For G10A U14C A42G U73C U81A U96C G125U, the self-cleavage was 0.3. Work on G93A U100A U104A yielded a self-cleavage of 0.08. For G7A G36U A138G, the self-cleavage was 2. U15A U46C A79C U108C showed a self-cleavage of 0. Work on U52C A142G U143A yielded a self-cleavage of 1.79. In the case of C3U A69U A94G, the self-cleavage is reported as 0. With A64G U130C A142C U143C the self-cleavage was 0. A64G A79G A138U gave a self-cleavage of 0.18. Variant C19G C61A A77G A142G has a self-cleavage of 0.07. Variant U26G C103U U112C A121U has a self-cleavage of 1.26. U5C U96A A117U A138U showed a self-cleavage of 0.48. C3U G36C A65G G75A A78G showed a self-cleavage of 0.11. With A2G U14A A50U A94U U96A C101U U109C the self-cleavage was 0.25. G36A U96C A141G showed a self-cleavage of 0.09. C37A U52A A69U showed a self-cleavage of 0.17. With U9C U20G G33U the self-cleavage was 2.3. Work on U26A U130G A141G yielded a self-cleavage of 0.54. Work on U23C A117G A124G yielded a self-cleavage of 1.15. For U1C U20C U45A C66A U112C U119C A141G G144A, the self-cleavage was 0.05. In the case of U12G G34U U112A, the self-cleavage is reported as 1.33. Variant C19U U29C A69U A79G has a self-cleavage of 0.05. Work on A57U G105C A142G yielded a self-cleavage of 0.09. Variant U87C G97U A107G has a self-cleavage of 0.02. In the case of U20A U85C U96C A107G, the self-cleavage is reported as 1.84. For U23C U96C U134C, the self-cleavage was 0.1. U62C A94G U96C C113U gave a self-cleavage of 0. G40A A94G U102C showed a self-cleavage of 0. Work on A6U A43G A59G U62C A129U yielded a self-cleavage of 0. C103A A129U U130C showed a self-cleavage of 0.92. U13C C19U A65U showed a self-cleavage of 0.26. For A67U A77G U87C, the self-cleavage was 0.53. A22U U46C A59U gave a self-cleavage of 0.61. U12A U14C U39C U104A gave a self-cleavage of 0.9. U15A A69C U102A gave a self-cleavage of 0. U12A U13A A65G C103U gave a self-cleavage of 0.19. Variant A2G G7U U115A A142U has a self-cleavage of 1.62. Variant A22G A50G A59G A138U has a self-cleavage of 0. A22U A78G A129G showed a self-cleavage of 1.75. For U5A U15A A24U A42U C51A U73A A141G, the self-cleavage was 0.55. With U26A U47A A59G G60A A69U A117G A138G the self-cleavage was 0.07. With A2G A43G U96A A138G the self-cleavage was 0.15. A24G A57G U104A showed a self-cleavage of 0.54. Work on U9C A69G G114A yielded a self-cleavage of 0.17. With U52C C90U U108C the self-cleavage was 0.17. Variant A6G U15C U47A A69G has a self-cleavage of 0. In the case of U46A U73A U104G A136G, the self-cleavage is reported as 1.59. Variant U45C G54A A69G A107U U112A has a self-cleavage of 0.32. U5C U20A U47A U52C showed a self-cleavage of 1.25. Work on U47C A50U A107C U130C yielded a self-cleavage of 1.67. In the case of U14G A57U A59G A107G, the self-cleavage is reported as 0. U12A U87C A129U gave a self-cleavage of 0.3. A43U G53A U102C showed a self-cleavage of 1.12. Variant A22G U100C C113U has a self-cleavage of 1.37. For A2G U20C G58A, the self-cleavage was 0. U14A U26C U132C A140G U143G showed a self-cleavage of 0.63. In the case of U12C U14A U15A, the self-cleavage is reported as 0.72. A2G A42U C120U gave a self-cleavage of 1.06. U5C G40A A57G U81A gave a self-cleavage of 0.36. Variant A79G A94G U104C has a self-cleavage of 0.74. U12C A69U U112C gave a self-cleavage of 0.26. For U20G A65U A107G A140U, the self-cleavage was 0.39. For U9A C116U A124G, the self-cleavage was 0.68. Variant G35A U39A A67G has a self-cleavage of 0.41. For U15A G48A A94G U119C U130C, the self-cleavage was 0.43. U12C A140G A142G gave a self-cleavage of 0.64. U20A A124U A140G A142G showed a self-cleavage of 1.05. With U62C U73A U130C the self-cleavage was 0.07. A22G U47A U100C showed a self-cleavage of 1.84. Work on U15A U104C U132A yielded a self-cleavage of 1.62. With U5C U47A A64G A107U the self-cleavage was 0.27. In the case of U45C G114A A136G, the self-cleavage is reported as 1.28. U20A A22G A94G gave a self-cleavage of 0.27. A59G U100C A140G A141G showed a self-cleavage of 0.16. G93U G97A C101U showed a self-cleavage of 0.06. In the case of U15C A31G A64U, the self-cleavage is reported as 0.95. Work on G34U U39C A69U yielded a self-cleavage of 0.05. Work on U14A G89A U108C yielded a self-cleavage of 0.03. Work on U62C A107G A141G yielded a self-cleavage of 0. In the case of U1C U45G A107G, the self-cleavage is reported as 1.1. Variant G80A U115C U143C has a self-cleavage of 2.69. For A31G U100C C146U, the self-cleavage was 1.43. With U47C U62C A77G U96A A138G the self-cleavage was 0.2. U29C A79G U87C showed a self-cleavage of 0.68. Variant U20C A65G A78G has a self-cleavage of 0. Work on C76A U115C U132C yielded a self-cleavage of 1.86. In the case of U1C G35A A107U, the self-cleavage is reported as 1.06. For U62A U91C U115C A142G, the self-cleavage was 0. For A65U A107C U115A, the self-cleavage was 0.21. With U26C U96A A138U the self-cleavage was 0.04. In the case of G33U U39C U132A, the self-cleavage is reported as 1.29. Work on A57G A77G A141G yielded a self-cleavage of 1.58. A22G A42G A117C showed a self-cleavage of 1.27. U1C U14C A42U A57G U62A gave a self-cleavage of 0.03. C37A C71U U81C gave a self-cleavage of 0.87. Variant U15A U45C A136G has a self-cleavage of 0.93. For U46A C63U A65G U100C A140G, the self-cleavage was 0.02. U46A G80U U81C A107G gave a self-cleavage of 0.73. In the case of U9C U13A A136U, the self-cleavage is reported as 1.18. Work on C3U A57U A140G yielded a self-cleavage of 0.29. Variant U13C A64G C90U A141G has a self-cleavage of 0.05. For C61A A78G U134G, the self-cleavage was 0.04. Variant U13A C16U U45C U112A A138G has a self-cleavage of 0.81. G7A U73C A117G gave a self-cleavage of 0.44. Work on U14A A59G U62C U73C yielded a self-cleavage of 0.25. U1C U39A A117G C133A showed a self-cleavage of 0.99. In the case of U23C U29C U81G U100C G122A, the self-cleavage is reported as 2.22. With U46C U47G A50G A77U U85A the self-cleavage was 0. With G36A G74A U143A the self-cleavage was 0.97. In the case of U45C A57G U112C, the self-cleavage is reported as 0.51. C37U A69G A121G gave a self-cleavage of 0.75. For A43G G93A A121G U130C, the self-cleavage was 0. U14A A31G A64C A79U A117G gave a self-cleavage of 0.33. In the case of G72A U85C A140G, the self-cleavage is reported as 0.05. In the case of U9C C51G C123U A138G, the self-cleavage is reported as 1.56. With C18U U20C A138G the self-cleavage was 0.66. Variant A6G U45A A92G has a self-cleavage of 0.53. Variant A65C U81C A121U G127C U132C has a self-cleavage of 0. With A2G G40A A43G A57G U102A A138G U143A the self-cleavage was 0.88. Variant U13C A77G G106A U132C has a self-cleavage of 1.58. Variant U23C G122U G144A has a self-cleavage of 1.4. Variant U14G C99U U119C has a self-cleavage of 1.14. U20A U73G A77G U109C gave a self-cleavage of 0.4. Work on U119A A129G U134C yielded a self-cleavage of 1.58.
